# Out of some 43,000 compounds screened, about 200 (0.47%) were called active. Roughly 12% stayed inconclusive and do not appear here. The call rests on the fitted dose curve; in most records, active means well fitted cell-killing curve with a large enough effect; inconclusive means small, poorly fitted or top-dose-only effect, or effect the other way; inactive means flat fitted curve, though single readings scatter. The list shows a part of the results.
# Experiment: Cell viability qHTS assay in S16 Pmp22-F2sN cells; further: nearly all actives have a fitted effect of over 65% in size
# Settings: S16 Pmp22-F2sN Schwann cells (luciferase reporters placed in the Pmp22 gene) viability, CellTiter-Glo, 24 h; series mostly up to 57.5 µM; activity change, negative = cytotoxicity: at the top concentration
# Method in brief: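 Rat S16 Schwann reporter line, 24 h treatment with library compounds delivered at 23 nL per well. Cell viability by CellTiter-Glo luminescence.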
# On the % scale 0 is the no-effect control and ±100 the full control effect.
row,Compound,"activity change, negative = cytotoxicity"
1,COc1ccc(S(=O)(=O)NCc2ccc3c(c2)CCN3C(C)=O)cc1OC,inactive: 2.39%
2,COC(=O)c1ccc([C@H]2Nc3ccc(S(=O)(=O)Nc4ccc(F)cc4)cc3[C@H]3C=CC[C@H]32)cc1,inactive: -2.94%
3,Cc1ccc(OCC(=O)N(Cc2nc(-c3ccccc3)no2)C(C)C)cc1C,inactive: -0.094%
4,CN(C)c1ncc(C(=O)NCc2ccccc2Cl)cn1,inactive: -5.19%
5,CCOc1ccc(S(=O)(=O)N(CC(=O)NCCc2ccc(OC)cc2)c2ccccc2)cc1,inactive: 12.2%
6,COc1ccccc1N1CCN(c2c(CN3CCCC3)c(=O)oc3ccccc23)CC1,inactive: 7.96%
7,Cc1ccc(NC(=O)CSc2nncn3c2cc2sccc23)cc1F,inactive: 7.7%
8,Cc1ccc(-n2c(=O)c3c(c4cc(C)ccc4n3C)n(CC(=O)NCC3CCCO3)c2=O)cc1 (stereo not given),inactive: 0.778%
9,COc1cc(Cl)c(NC(=O)CC(C)S(=O)(=O)c2cc3c(cc2C)NC(=O)CO3)c(OC)c1 (stereo not given),inactive: -6.65%
10,Cc1ccc(-c2nc3n(n2)C(=O)CC(c2ccc(C)cc2)S3)cc1 (stereo not given),inactive: -0.739%
11,CC(C)c1ccc(NC(=O)c2cc(S(=O)(=O)N3CCc4ccccc4C3)ccc2F)cc1,inactive: -3.6%
12,CCCCOC(=O)c1ccc(NC2=NS(=O)(=O)c3ccccc32)cc1,inactive: 13.9%
13,CCOC(=O)c1c(C)oc2nc(C)nc(NCC3CCN(Cc4ccc(F)cc4)CC3)c12,inactive: 24.6%
14,COc1ccc(CNc2ncnc3c2cnn3-c2ccc(Cl)cc2)cc1,inactive: 9.14%
15,COc1cccc(-c2ccc3c(N)c(C(=O)c4ccc(F)cc4)sc3n2)c1,inactive: 21.6%
16,CC(NC(=O)CCCN1C(=O)CCn2nc(-c3cn(C)c4ccccc34)cc21)c1ccccc1 (stereo not given),inactive: -24.7%
17,Fc1ccc(-c2nc3c4c(-c5ccccc5)c(-c5ccccc5)oc4ncn3n2)cc1,inactive: -8.97%
18,O=C(Nc1ccc(Cl)c(-c2nc3ccccc3o2)c1)c1cccc2c(Cl)cccc12,inactive: 3.26%
19,Cc1ccc(CSC2=Nc3ccccc3C3=NC(CCC(=O)NCc4cccs4)C(=O)N23)c(C)c1 (stereo not given),inactive: 3.68%
20,COc1ccc(Nc2ccc3cc(S(=O)(=O)N4CCCC4)ccc3n2)cc1OC,inactive: -12%
21,COc1ccccc1CNC(=O)CCCCn1c(=O)c2ccccc2n(Cc2ccccc2C)c1=O,inactive: -4.47%
22,Cc1cc(C)cc(C(=O)Nc2cccc(-c3nc4ncccc4o3)c2C)c1,inactive: -1.5%
23,CC(C)(C)C1CCc2c(sc(NC(=O)c3ccccc3F)c2C(=O)NCc2ccco2)C1 (stereo not given),inactive: -2.44%
24,CC(=O)c1c(C)n(-c2ccc(Cl)cc2)c2ccc(OC(=O)COc3ccccc3)cc12,inactive: -16.6%

row,Compound,"activity change, negative = cytotoxicity"
1,CC(=O)c1cccc(NC(=O)c2ccc(Cl)c(S(=O)(=O)N3CCOCC3)c2)c1,inactive: 17.4%
2,COc1ccc(-c2nc3scc(CCNS(=O)(=O)c4c(C)cc(C)cc4C)n3n2)cc1OC,inactive: 1.07%
3,O=C(NCCn1cc(SCc2ccccc2)c2ccccc21)c1cccs1,inactive: -8.86%
4,CN(Cc1ccccc1)S(=O)(=O)c1nnc(NC(=O)c2ccccc2Cl)s1,inactive: -8%
5,CCOC(=O)c1cc2c(=O)n3ccccc3nc2n(CCOC)c1=NC(=O)c1cc2ccccc2o1,inactive: -2.97%
6,c1ccc(N2CCN(Cc3nnc(-c4ccc5c(c4)OCO5)o3)CC2)cc1,inactive: 4.7%
7,COc1ccc(C2=NS(=O)(=O)N(C)C(C(=O)Nc3ccc(OC(F)(F)F)cc3)=C2)cc1,inactive: -13.7%
8,CC(=O)c1cccc(NC(=O)CCc2nc3cccnc3n2Cc2cccs2)c1,inactive: 6.68%
9,COc1ccc(-c2nc(Cn3c(=O)cc(-c4ccccc4)c4c(C)nn(C)c43)c(C)o2)cc1OC,inactive: -7.51%
10,CCOc1ccc(Nc2nc3c(S(=O)(=O)c4ccc(CC)cc4)nnn3c3ccc(Cl)cc23)cc1,inactive: 1.85%
11,CC1CCN(S(=O)(=O)c2ccc3c(ccc(=O)n3CC(=O)NCc3ccc(Cl)cc3)c2)CC1,inactive: -1.68%
12,COc1ccc(S(=O)(=O)N(CC(=O)Nc2cc(C)cc(C)c2)c2ccc(Cl)cc2)cc1,inactive: 0.561%
13,CCn1c(C(=O)N2CCC(C(=O)N3CCN(c4ccc(OC)cc4)CC3)CC2)cc2sccc21,inactive: -19.6%
14,COc1ccc(Cl)cc1N=C1NC(=O)CC(C(=O)Nc2ccccc2C(F)(F)F)S1 (stereo not given),inactive: 6.97%
15,CCNc1nc(NC(C)(C)C)nc(Oc2ccc(=O)n(-c3ccccc3)n2)n1,inactive: -1.03%
16,CC(C)Oc1ccc(CNC(=O)c2ccc3nc(C(C)C)oc3c2)cc1,inactive: 1.03%
17,Cc1cc(C)cc(NC(=O)C(CC(C)C)NC(=O)C2CCCCC2)c1 (stereo not given),inactive: 8.74%
18,CN(C)c1ccc(C(=O)Nc2c(C(=O)NC(C)(C)C)oc3ccccc23)cc1,inactive: -3%
19,O=C(c1cccn1-c1nnc(N2CCCCC2)s1)N1CCN(c2ccc(Cl)cc2)CC1,inactive: -6.54%
20,COc1ccc(CCNc2nc3ccc(C)cc3n3cnnc23)cc1OC,inactive: 16.1%
21,CCOC(=O)CSc1nc(-c2ccc(F)cc2)cc(C(F)(F)F)c1C#N,inactive: 1.43%
22,O=C(CSc1nc(-c2ccccc2)no1)N1CCN(c2ccccc2)CC1,inactive: 14.6%
23,CCOc1ccccc1NC(=O)c1cc(S(=O)(=O)N2CCOCC2)cn1C,inactive: 12.2%
24,CCC(=O)N1c2ccccc2C(C)(c2ccccc2)CC1(C)C (stereo not given),inactive: -1.21%

row,Compound,"activity change, negative = cytotoxicity"
1,CN1CCN(C(=O)c2ccc3c(c2)N(Cc2ccc(F)cc2)C(=O)c2ccccc2S3=O)CC1 (stereo not given),inactive: 18.5%
2,CC(C)(C)OC(=O)N1CCC(c2c(C(=O)NCc3ccccc3)cnn2-c2ccc(F)cc2)CC1,inactive: 20.3%
3,CCCNC(=O)c1cnn2c(C(F)F)cc(-c3ccccc3)nc12,inactive: 0.15%
4,COc1ccc(CCNc2oc(COc3cccc(C)c3)nc2C#N)cc1OC,inactive: -13.5%
5,CC1(C)CC(=O)c2cc(-c3nc(-c4ccc(Cl)cc4)cs3)c(=O)[nH]c2C1,inactive: 0.874%
6,CCN1CCc2c(sc(-n3cccc3)c2C(C)NC(=O)Nc2cc(Cl)c(OC)cc2OC)C1 (stereo not given),inactive: 22.4%
7,Cc1nc2c(-c3ccccc3)c(C)nn2c(C)c1CCC(=O)NCCc1ccccc1,inactive: 13.9%
8,CC(C)c1ccc(NC(=O)N2CCN(c3ccc(Cl)c(Cl)c3)CC2)cc1,inactive: -15.7%
9,O=C(COc1cccc(Cl)c1)N1CCC(c2nc3ccccc3o2)CC1,inactive: -5.25%
10,CCOc1ccc(NC(=O)CSc2nc3c([nH]c4ccccc43)c(=O)n2-c2cc(C)cc(C)c2)cc1,inactive: 3.09%
11,Cc1cccc(N2CCN(C(=O)c3cnc4c(C)cccn4c3=O)CC2C)c1 (stereo not given),inactive: -0.338%
12,COc1ccc(NC(=O)CSc2nc3c(oc4ccccc43)c(=O)n2-c2ccccc2)cc1OC,inactive: 3.66%
13,CCOC(=O)c1c(C)oc2c1cc(NS(=O)(=O)c1ccc(C)cc1)c1ccccc12,inactive: 26.1%
14,Cc1ccc(N2CCN(C(=O)c3c(C)oc4ncnc(N5CCCCC5)c34)CC2)c(C)c1,inactive: -6.51%
15,O=C(NC1CC(=O)N(c2ccc(Cl)cc2)C1)C1CCCC1 (stereo not given),inactive: 5.69%
16,COc1ccc(-c2cc(C)no2)cc1S(=O)(=O)N1CCN(c2ccccc2F)CC1,inactive: -16.6%
17,CC(=O)N1c2ccccc2CC1C(=O)NCc1cccc(Cl)c1 (stereo not given),inactive: -3.06%
18,CC1CCN(c2nc3c(S(=O)(=O)c4ccc(Cl)cc4)nnn3c3ccsc23)CC1,inactive: -5.74%
19,COc1ccc(CCNc2nc3c(-c4cccc(F)c4)nnn3c3ccccc23)cc1OC,inactive: -1.72%
20,Cc1cccc(NC(=O)CSc2nc(-c3ccccc3Cl)nc3c2Cc2c(CO)cnc(C)c2O3)c1C,inactive: -5.1%
21,COc1cc2c(cc1OC)n(Cc1ccc([N+](=O)[O-])cc1)c(=O)n1nc(-c3ccccc3)nc21,inactive: 3.33%
22,COc1cc2c(cc1OC)C(COc1ccc3c(C)cc(=O)oc3c1)N(C(=O)c1ccccc1F)CC2 (stereo not given),inactive: -7.93%
23,CCc1ccccc1NC(=O)c1ccc(CN2C(=O)CCn3nc(C)cc32)cc1,inactive: 3.44%
24,COCCNC(=O)C1CCN(c2nc3ccccc3nc2C(F)(F)F)CC1,inactive: 8.67%

row,Compound,"activity change, negative = cytotoxicity"
1,Cc1ccccc1NC(=O)CSc1cn(CC(=O)N(C(C)C)C(C)C)c2ccccc12,inactive: -6.19%
2,Cc1ccccc1OCC(=O)Nc1ccc2nc(SCc3ccccc3)sc2c1,inactive: 17.4%
3,Cc1ccc(OCC(=O)Nc2nc(-c3ccc(Br)cc3)ns2)cc1C,inactive: -4.03%
4,CCc1ccc(NS(=O)(=O)c2c(C)nc3sc(CC)nn3c2=O)cc1,inactive: -17.1%
5,COc1ccc(CCNC(=O)C2CCN(c3nc4ccccc4nc3C(F)(F)F)CC2)c(OC)c1,inactive: -2.55%
6,Cc1ccc(C)c(CN2C(=O)C3(c4ccccc42)N(c2ccc(Cl)cc2)C(=O)CS3(=O)=O)c1 (stereo not given),inactive: -5.06%
7,COc1ccc(OCC(=O)NC2CC(=O)N(c3ccc4c(c3)OCCO4)C2)cc1 (stereo not given),inactive: 1.98%
8,COc1ccc(-c2ccc(NS(=O)(=O)c3cccc(C)c3)cc2)nn1,inactive: -2.77%
9,Cc1ccccc1-c1nnc(SCC(=O)N(C)C2CCCCC2)o1,inactive: 6.66%
10,CCNC(=O)c1ccc(CSc2nc3ccncc3n2Cc2ccc(F)cc2)cc1,inactive: 0.108%
11,Cc1ccc(NC(=O)N2CCN(c3cc(-c4noc(C)n4)ccc3C)CC2)c(C)c1,inactive: 13.1%
12,Cc1cccc(CCNC(=O)CN(c2ccc(C(C)C)cc2)S(=O)(=O)c2c(C)nn(C)c2C)c1,inactive: -8.92%
13,CCn1c(C(=O)NCc2cc(Br)ccc2OC)cc2oc3ccccc3c21,inactive: -3.96%
14,CCN(C(=O)Cn1cnc2onc(-c3ccc(F)cc3)c2c1=O)c1cc(C)ccc1C,inactive: -1.91%
15,COc1ccc(CCNC(=O)c2ccc3c(c2)nc2n3CCC(C)C2)cc1OC (stereo not given),inactive: 17.8%
16,CCOC(=O)c1noc2nc(C)n(Cc3cccc(C#N)c3)c(=O)c12,inactive: 1.72%
17,COc1cccc(Cc2nc3ccccc3nc2SCC(=O)NCc2ccc(C)cc2)c1,inactive: 8.04%
18,Cc1cccc(NC(=O)Cn2c(=O)ccc3cc(S(=O)(=O)N4CCCC4)ccc32)c1C,inactive: 7.53%
19,CC(=O)c1ccc(NC(=O)C2CCC(CNS(=O)(=O)c3cccs3)CC2)cc1 (stereo not given),inactive: 17.2%
20,Cc1c(NC(=O)c2cc(-c3ccc(Cl)cc3)on2)c(=O)n(-c2ccccc2)n1C,inactive: 1.81%
21,CCOC(=O)c1[nH]c(C)c(CCC(=O)NCc2ccc(OC)cc2)c1C,inactive: 0.476%
22,COc1ccc(N2C(=O)CS(=O)(=O)C23C(=O)N(Cc2ccc(C)cc2)c2ccccc23)cc1Cl (stereo not given),inactive: 4.84%
23,COc1ccc(S(=O)(=O)Nc2ccc(-c3cn4ccsc4n3)cc2)cc1C,inactive: -0.517%
